Drawing on PubChem BioAssay AID1240 (Sanford-Burnham Center for Chemical Genomics, 2008), this text covers displacement for 30 molecules.

Among all 50,000 compounds or so, about 800 (1.6%) showed an effect of 50% or more. This is one part of the list.

This assay addresses Bcl-2-like protein 10 (Homo sapiens) (UniProt Q9HD36). Put plainly: TR3 peptide-Bcl-B binding displacers, biochemical primary FP assay, phenotype converters (AID 1240).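 Note: 0% = Bcl-B with tracer peptide and DMSO and 100% = tracer peptide lacking Bcl-B.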 The note with it: GST-Bcl-B / FITC-TR3 peptide fluorescence polarization; stronger effect = higher value; compound at 3.75 mg/L.
Sequence of UniProt Q9HD36 (Q9HD36 whole entry, looked up): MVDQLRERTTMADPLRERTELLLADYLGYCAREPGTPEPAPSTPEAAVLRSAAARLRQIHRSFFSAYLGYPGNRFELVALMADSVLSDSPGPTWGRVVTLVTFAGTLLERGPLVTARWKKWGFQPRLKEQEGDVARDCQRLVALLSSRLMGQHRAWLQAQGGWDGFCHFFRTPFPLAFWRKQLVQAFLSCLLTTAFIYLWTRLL
Take `CCOC(=O)C(CC)P(=O)(c1ccccc1)c1ccccc1` (stereo not given): the displacement was found to be 20.9%.

With `CC(=O)c1ccc(Nc2ncnc(Nc3ccc(C(C)=O)cc3)c2[N+](=O)[O-])cc1`, the displacement was -5.3%.

For the molecule `COc1cc(C2N(c3ccccc3)CCN2c2ccccc2)ccc1OC(C)=O`, the displacement came to 5.9%. Turning to `Cn1c(-c2ccccc2Br)n[nH]c1=S`, the displacement worked out at 4.6%.

For the molecule `O=C(O)c1ccc(Nc2nc(-c3ccccc3)c3ccccc3n2)cc1`, the displacement worked out at 8.7%. Take `O=C1C(=O)N(c2nccs2)C(c2cccc(Cl)c2)/C1=C(\O)c1ccc(Cl)cc1` (stereo not given): the displacement was 11.7%.

Regarding `COc1ccc(C2Nc3ccc(C(=O)c4ccccc4)cc3NC3=C2C(=O)CCC3)cc1` (stereo not given), the displacement is -0.5%.

For `Cc1cccc(OCC(=O)N2CCCC2)c1`, the displacement was 11.9%. As for `N#C/C(=C\N1CCOCC1)c1ccccc1`, the displacement was -0.9%. Consider `Cc1ccc(N2C(=O)NC(=O)/C(=C\c3ccsc3)C2=O)cc1`, for which the displacement worked out at 66.1%. Then `COc1ccc(Br)cc1/C=C/C(=O)Nc1cc(-c2nc3ccccc3o2)ccc1C`, with 5.1%; and `CCOC(=O)C1=C(O)/C(=C/c2ccc(C(C)(C)C)cc2)SC1=Nc1ccccc1`, with -6.6%; and `CC(=O)N1CC2(CC(=O)OC(C)C)CN(C(C)=O)CC(CC(=O)OC(C)C)(C1)C2=O`, with -2.4%. For the molecule `Cc1ccn(S(=O)(=O)c2ccc(N3CCCC3=O)cc2)n1`, the displacement amounted to 10.3%. Then `C=CCNC(=O)C(=O)NCCCOC`, with 6.1%; and `CC1(C)C(=O)N(Cc2ccc(Cl)c(Cl)c2)c2ccccc2N1C(=O)c1cccc([N+](=O)[O-])c1`, with -9.7%.

For the molecule `C=CCn1c(SCC(C)C)nc(O)c(Cc2ccccc2)c1=O`, the displacement is 5.5%.

In the case of `COC(=O)C1=C(C)NC(=O)CC1c1cc(Br)ccc1OC` (stereo not given), the displacement amounted to 2.7%. Then `Cn1c2ccc(Cl)cc2c2cc(C(=O)C(F)(F)F)ccc21`, with -5.8%; and `Cc1ccn2c(NC(=O)/C=C/c3ccccc3)c(-c3ccccc3)nc2c1`, with 10.7%. For `CCCCP(=O)(CCCC)CCP(=O)(c1ccccc1)c1ccccc1`, the displacement amounted to 16.4%. The value for `COC(=O)c1c(C)oc2ccc(NS(=O)(=O)c3ccc(Cl)c([N+](=O)[O-])c3)cc12` was 6.3%; that for `COC(=O)C1=C(C)NC2=C(C(=O)CC(C)(C)C2)C1c1ccccc1` (stereo not given) was 8.7%; that for `CCN(CC)c1ccc(-c2c(C#N)c(N)nc(OC)c2C#N)cc1` was 0.5%.

For `COc1ccc(N(CC(=O)Nc2cccc(C)c2C)S(=O)(=O)c2ccccc2)cc1`, the displacement is -1.8%. Then `CCOC(=O)CCN1C(=O)/C(=C/c2ccccc2)SC1=S`, with -3.1%.

As for `O=C1C(=Cc2ccc(OCc3ccc(F)cc3)cc2)C(=O)c2ccccc21`, the displacement was -10.4%.

For the molecule `O=C(O)c1cccc(N2C(=O)c3ccc(Br)cc3C2=O)c1`, the displacement was found to be 0.1%.

As for `COc1ccc(CN2CCN(Cc3ccccn3)CC2)cc1`, the displacement was determined as 3%. Then `Cc1cc(Cl)ccc1OCC(=O)Nc1ccc(S(=O)(=O)Nc2onc(C)c2C)cc1`, with 5.6%.
